Experimental data as given in PubChem BioAssay AID588795 (National Center for Advancing Translational Sciences (NCATS), 2011).
Hit rate of the full screen: of about 390,000 compounds, about 1,400 (0.36%) were called active. The inconclusive results got no clear call from the source; some entries with a clear call stand among them for comparison. Calls follow the shape of the dose curve; as a rule, active = well fitted inhibition curve with a large enough effect; inconclusive = small, poorly fitted or top-dose-only effect; inactive = no such curve, though single readings can be large or run the other way. A potency beside an inconclusive call is a rough fit, not a confirmed value.

target: Flap endonuclease 1 (Homo sapiens) (UniProt P39748); assay: qHTS Assay for the Inhibitors of Human Flap endonuclease 1 (FEN1).; also: nearly all actives have a fitted effect of over 65% in size; conditions: Recombinant FEN1 flap cleavage, fluorescence, 15 min; series mostly up to 114 µM
UniProt P39748, sequence (P39748 whole entry, looked up, the tested form may be a part): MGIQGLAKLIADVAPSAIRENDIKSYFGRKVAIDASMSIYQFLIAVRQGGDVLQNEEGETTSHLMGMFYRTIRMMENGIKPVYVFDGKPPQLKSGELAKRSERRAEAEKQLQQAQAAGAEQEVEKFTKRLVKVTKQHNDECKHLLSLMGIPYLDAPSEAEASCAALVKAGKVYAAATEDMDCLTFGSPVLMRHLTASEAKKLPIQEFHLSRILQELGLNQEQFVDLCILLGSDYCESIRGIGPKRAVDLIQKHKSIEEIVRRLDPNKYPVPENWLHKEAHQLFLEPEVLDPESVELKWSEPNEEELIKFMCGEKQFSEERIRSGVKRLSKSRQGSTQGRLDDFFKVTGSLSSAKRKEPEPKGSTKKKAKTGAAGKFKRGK
From the text: The major human flap endonuclease FEN1 is an efficient structure-specific enzyme that recognizes and cleaves a 5'-unannealed DNA flap. It belongs to the RAD2 family nucleases, which are involved in DNA metabolism and are highly conserved in prokaryotes and eukaryotes. FEN1 is a key enzyme in DNA replication, repair and maintenance of genomic stability. 5'-flap removal by FEN1 is critical for Okazaki fragment processing during lagging strand DNA synthesis, long-patch base excision repair (LP BER), and regulating or facilitating recombination events. […] Deletion of the yeast FEN1 gene, i.e. rad27, results in an increased frequency of short DNA (3-32 bp) repeats, micro- and mini-satellite formation, trinucleotide repeat expansion, spontaneous recombination events, and a severe growth defect in association with cell cycle arrest in late S/G2 phase. […] Cells from fen1-/- blastocysts show increased apoptotic cell death after ionizing radiation treatment, and chicken cells lacking the fen1 gene are hypersensitive to DNA alkylating agents, e.g. methylmethane sulfonate (MMS) and N-methyl-N'-nitro-N-nitrosoguanidine (MNNG), as well as hydrogen peroxide.
NIH Chemical Genomics Center [NCGC]
NIH Molecular Libraries Probe Centers Network [MLPCN]
Assay Submitter (PI): David Wilson, National Institute of Aging
Three uL of reagents (buffer in column 3 and 4 as negative control and 10 nM FEN1 in columns 1, 2, and 5-48) were dispensed into 1,536-well black solid-bottomed plate. Compounds (23 nL) were transferred via Kalypsys pin tool equipped with 1536-pin array (10 nL slotted pins, V&P Scientific, San Diego, CA). The plates were then incubated for 15 min at room temperature, and 1 uL substrate (50 nM final concentration) were added to start the reaction read twice at 0 min read and 15 min on ViewLux reader. Throughout the screen, reagent bottle and all liquid lines were chilled and made light-tight to minimize reagent degradation. All screening operations were performed on a fully integrated robotic system (Kalypsys, San Diego, CA) containing one RX-130 and two RX-90 anthropomorphic robotic arms (Staubli, Duncan, SC). Library plates were screened starting from the lowest and proceeding to the highest concentration, and a "double-dipping" step of the highest concentration was required to access higher concentrations of compounds. Vehicle-only plates, with DMSO being pin-transferred to the entire column 5-48 compound area, were inserted uniformly at the beginning and the end of each library in order to monitor for and record any shifts in the background, which can be affected by reagent dispensers or loss in enzyme activity overtime. Screening data was corrected, normalized, and concentration-effect relationships were derived by using publicly-available curve fitting algorithms developed in-house (http://ncgc.nih.gov/pub/openhts). A four parameter Hill equation was fitted to the concentration-response data by minimizing the residual error between the modeled and observed responses.
Potency is read from the fitted curve at half-maximal effect; tags tell the direction and shape of the fitted curve.

Structure (SMILES) | Potency
Oc1ccc(N=C/C=C/c2cccc(Br)c2)cc1-c1nc2ccccc2s1 | inactive
CC1=NN(c2ccccc2)C(=O)/C1=C/c1ccc(Cl)cc1 | inconclusive: 39.8 µM [inhibitor, partial curve, poor fit]
COc1cc2c(NC3CCN(C)CC3)nc(N3CCCN(C)CC3)nc2cc1OCCCCCCN(C)C | active: 22.4 µM
CC(Nc1nc(-c2ccc(F)cc2)cs1)c1nc2cc(Cl)c(Cl)cc2n1CCCO (stereo not drawn) | inactive
Cc1cc(OC(=O)c2c(Cl)cccc2Cl)nc(C)n1 | inconclusive: 3.98 µM [inhibitor, partial curve, poor fit]
CCOc1ccc(CNC(=O)Nc2ccc3c(c2)N(C)C(=O)c2ccccc2S3)cc1 | inactive
O=C(O)c1ccccc1NS(=O)(=O)c1ccc(N/N=C/c2ccc(O)c(O)c2)c([N+](=O)[O-])c1 | active: 28.2 µM
O=C(Nc1cnn(Cc2ccc(Cl)cc2)c1)c1cccs1 | inconclusive: 89.1 µM [inhibitor, single point]
Cc1nc2cc(N3CCOCC3)c(NC(=O)C3CC3)cc2c(=O)n1Cc1ccccc1 | inactive
Cc1cc(C)c(S(=O)(=O)/N=C2\C=C(Nc3ccc(C(=O)O)cc3)C(=O)c3ccccc32)c(C)c1 | inconclusive: 56.2 µM [inhibitor, partial curve, poor fit]
CCCNC(=O)Cn1ncc2c3ccccc3n(CCC)c2c1=O | inactive
Cc1[nH]c2ccccc2c1N=Nc1ccc(F)cc1 | inconclusive: 50.1 µM [inhibitor, partial curve, poor fit]
Cc1ccc(-c2nn(-c3ccc(F)cc3F)c3c2cnc2ccc(F)cc23)cc1 | inactive
COc1ccc(NC(=O)c2cc(C(C)=O)n3ccccc23)cc1 | inconclusive: 79.4 µM [inhibitor, partial curve, poor fit]
O=C(O)CCN1C(=O)/C(=C\c2cccc(Oc3ccccc3)c2)SC1=S | inconclusive: 89.1 µM [inhibitor, partial curve, poor fit]
O=C(O)c1cccc(-n2cccc2/C=C2\NC(=O)N(Cc3ccc(F)cc3)C2=O)c1 | inconclusive: 79.4 µM [inhibitor, partial curve, poor fit]
COc1ccc(-c2nc(C)c(CCNC(=O)C(=O)Nc3ccccc3F)s2)cc1 | inactive
COc1ccc(-n2nc(C(=O)NCC(=O)NCCCN3CCOCC3)c3ccccc3c2=O)cc1 | inactive
COCC(C)n1c(-c2ccc3c(c2)NC(=O)CO3)csc1=Nc1ccc(OC(F)F)cc1 (stereo not drawn) | inconclusive: 89.1 µM [inhibitor, partial curve, poor fit]
O=[N+]([O-])c1cc2no[n+]([O-])c2cc1N1CCCCC1 | active: 50.1 µM
CC(=O)Nc1ccc(-n2nnnc2SCC(=O)Nc2cccc(NC(=O)c3ccco3)c2)cc1 | inconclusive: 39.8 µM [inhibitor, partial curve]

Structure (SMILES) | Potency
Nc1nnc(C(F)(F)F)s1 | inconclusive: 89.1 µM [inhibitor, single point]
COCCCN1C(=O)c2ccc(C(=O)Nc3ccccc3Cl)cc2C1=O | inconclusive: 28.2 µM [inhibitor, single point]
COc1ccc(-c2nc(SCC(=O)Nc3ccccc3)c(-c3ccc(F)cc3)[nH]2)cc1OC | inconclusive: 89.1 µM [inhibitor, partial curve, poor fit]
CC(=O)c1ccc(N2CCc3ccccc3C2)c([N+](=O)[O-])c1 | inconclusive: 7.94 µM [inhibitor, partial curve, poor fit]
CCC(=O)Nc1ccc(C(=O)N/N=C/c2ccccc2[N+](=O)[O-])cc1 | inconclusive: 89.1 µM [inhibitor, partial curve, poor fit]
Cc1ccccc1CN1CCc2nc(N3CCN(c4ncccn4)CC3)ncc2C1 | inconclusive: 89.1 µM [inhibitor, partial curve, poor fit]
Cc1ccc([N+](=O)[O-])cc1-c1ccc(/C=C(\C#N)c2[nH]nc(N)c2C#N)o1 | inconclusive: 89.1 µM [inhibitor, partial curve]
Cc1ccc(-n2c3nc(=O)[nH]c(=O)c-3cc3cc([N+](=O)[O-])ccc32)cc1C | inconclusive: 63.1 µM [inhibitor, partial curve, poor fit]
Cc1nn(CC(=O)NCc2ccccc2Cl)c(=O)c2cccn12 | inactive
CCOC(=O)c1ccccc1NC(=O)N1CCCN(S(=O)(=O)c2ccc3c(ccn3CC)c2)CC1 | inactive
OCC1OC(n2cnc3c(NO)ncnc32)C(O)C1O (stereo not drawn) | inconclusive: 89.1 µM [inhibitor, partial curve, poor fit]
Clc1ccc(CON/C=N/c2ncnc3sccc23)cc1 | inconclusive: 89.1 µM [inhibitor, partial curve, poor fit]
Cc1ccc(-c2csc(NC(=O)/C=C/c3ccco3)c2C(=O)O)cc1 | inactive
O=[N+]([O-])c1ccc2[nH]c(O)c(N=NC(=S)Nc3cccnc3)c2c1 | inconclusive: 56.2 µM [inhibitor, partial curve]
O=C(N/N=C/c1ccncc1)c1cccc(NC(=O)c2ccc(Cl)cc2)c1 | inconclusive: 44.7 µM [inhibitor, partial curve]
Cc1cccn2c(=O)c(/C=C(\C#N)c3nc4ccccc4s3)c(Oc3ccc(Br)cc3)nc12 | inconclusive: 14.1 µM [inhibitor, full curve]
Cc1ccccc1-n1c(C)nnc1SCc1cc(=O)oc2ccc3ccccc3c12 | inconclusive: 11.2 µM [inhibitor, full curve, poor fit]
Cc1ccc2c(c1)CCCN2CC(=O)N(C)c1c(N)n(Cc2ccccc2)c(=O)[nH]c1=O | inconclusive: 100 µM [inhibitor, single point]
Cc1nc2ncccn2c1-c1csc(Nc2ccc(O)cc2)n1 | inconclusive: 89.1 µM [inhibitor, single point]
COc1ccc(C(=O)C2CCCN(C(=O)CCc3ccccn3)C2)c(C)c1 (stereo not drawn) | inactive
CC(NC(=O)C1CCN(C(=O)N2CCOc3ccc(Cl)cc32)CC1)c1ccccc1 (stereo not drawn) | inactive

Structure (SMILES) | Potency
COc1ccccc1/C=C/C=C1\Oc2c(ccc(O)c2CN2CCN(CCO)CC2)C1=O | inconclusive: 89.1 µM [inhibitor, partial curve, poor fit]
CC(=O)Nc1ccc(/C(C)=N/NC(=O)c2ccc(COc3ccccc3Cl)o2)cc1 | inconclusive: 89.1 µM [inhibitor, partial curve, poor fit]
CCOc1ccc(N)c(SSc2cc(OCC)ccc2N)c1 | inconclusive: 22.4 µM [inhibitor, full curve]
O=C1CC(c2ccco2)CC2=C1C(c1ccccc1)n1nc(C(F)(F)F)nc1N2 (stereo not drawn) | inconclusive: 89.1 µM [inhibitor, partial curve, poor fit]
Cc1ccc2nc(/C(C#N)=C/c3ccc(O)c(O)c3)[nH]c2c1 | inconclusive: 56.2 µM [inhibitor, partial curve, poor fit]
COc1ccc2c(c1OC)C(=O)OC2CC(=O)c1ccc(N(C)C)cc1 (stereo not drawn) | inconclusive: 25.1 µM [inhibitor, partial curve, poor fit]
CCOC(=O)C1CCN(C(=O)c2cc(COc3ccc(OC)c4ccccc34)on2)CC1 | inconclusive: 20 µM [inhibitor, partial curve, poor fit]
COC(=O)c1ccc(COc2ccc(/C=C/C(=O)c3ccc(OC)c(CSCC(=O)O)c3)cc2OC)cc1 | inconclusive: 22.4 µM [inhibitor, full curve]
O=C1C=CC(=O)c2c(O)c(N3CCN(CCO)CC3)c(Cl)c(O)c21 | inconclusive: 44.7 µM [inhibitor, partial curve]
Cc1cccc(C)c1NC(=O)CNC(=O)CCC(=O)N1CCOCC1 | inactive
Cc1nn(C)c(Oc2cccc(Cl)c2)c1C#N | inconclusive: 89.1 µM [inhibitor, single point]
CCOc1ccc2[nH]c3c(NCCN(CC)CC)ncnc3c2c1 | inconclusive: 39.8 µM [inhibitor, partial curve]
O=C1CC(c2ccc3c(c2)OCCO3)Oc2ccc([N+](=O)[O-])cc21 (stereo not drawn) | inconclusive: 31.6 µM [inhibitor, partial curve, poor fit]
CCCC/C=C/[C@H](c1ccccc1)[C@H](CO)Cc1ccccc1 | inconclusive: 79.4 µM [inhibitor, partial curve, poor fit]
COc1ccc(C(=O)Nc2cc3c(oc2=O)CCCC3=O)cc1 | inconclusive: 79.4 µM [inhibitor, partial curve, poor fit]
Cc1cc(C)cc(OCC(O)CN2CCC(CN3C(=O)c4cccc5cccc(c45)C3=O)CC2)c1 (stereo not drawn) | inconclusive: 44.7 µM [inhibitor, partial curve]
COc1ccc2[nH]c3c(N4CCC(O)(c5cccc(C(F)(F)F)c5)CC4)ncnc3c2c1 | inconclusive: 50.1 µM [inhibitor, partial curve, poor fit]
Cc1cc(C)c(S(=O)(=O)Nc2cc(SCC(=O)O)c(O)c3ccccc23)cc1C | inactive
O=S1(=O)CCOC[C@H](c2ccccc2)N1Cc1cccc(Cl)c1 | inconclusive: 100 µM [inhibitor, partial curve, poor fit]
Cc1ccc(C)c(Sc2ccc(NC(=O)CCN3C(=O)NC4(CCCC4)C3=O)cc2)c1 | inconclusive: 50.1 µM [inhibitor, partial curve, poor fit]
CC(C)OC(=O)c1cc(-c2ccc(C=O)o2)ccc1Cl | inactive
